# The other results are listed elsewhere or left out.
# Legend:
# Test in all cases: glycan array binding signal (z-score within array); higher = stronger binding
# Conditions in all cases: glycan notation: IUPAC condensed, linker removed
# [1] = target: Man(a1-2)Man(a1-3)[Man(a1-2)Man(a1-6)]Man
# Outline: (§1)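 Glycan array data came from 3228 arrays in the Consortium for Functional Glycomics database, and only arrays with an available protein sequence were kept. Glycan names were put into IUPAC-condensed notation, and columns mapping to the same glycan were averaged. The binding signal is a within-array Z-score, averaged across arrays of one protein sequence run at different concentrations or buffers and across linkers. A negative Z-score can be read as non-binding.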
# [2] = target: Man(a1-2)Man(a1-3)[Man(a1-2)Man(a1-6)]Man(a1-6)[Man(a1-2)Man(a1-2)Man(a1-3)]Man
# Outline: as §1
# [3] = target: Man(a1-2)Man(a1-3)[Man(a1-2)Man(a1-6)]Man(a1-6)[Man(a1-2)Man(a1-2)Man(a1-3)]Man(b1-4)GlcNAc(b1-4)GlcNAc
# Outline: as §1
# [4] = target: Man(a1-2)Man(a1-3)[Man(a1-6)]Man(a1-6)[Man(a1-2)Man(a1-3)]Man(b1-4)GlcNAc(b1-4)GlcNAc
# Outline: as §1
# [5] = target: Man(a1-2)Man(a1-6)[Man(a1-3)]Man(a1-6)[Man(a1-2)Man(a1-2)Man(a1-3)]Man
# Outline: as §1
# [6] = target: Man(a1-2)Man(a1-6)[Man(a1-3)]Man(a1-6)[Man(a1-2)Man(a1-2)Man(a1-3)]Man(b1-4)GlcNAc(b1-4)GlcNAc
# Outline: as §1
# [7] = target: Man(a1-3)[Man(a1-6)]Man
# Outline: as §1
# [8] = target: Man(a1-3)[Man(a1-6)]Man(a1-6)[Man(a1-2)Man(a1-3)]Man(b1-4)GlcNAc(b1-4)GlcNAc
# Outline: as §1
# [9] = target: Man(a1-3)[Man(a1-6)]Man(a1-6)[Man(a1-3)]Man
# Outline: as §1
# [10] = target: Man(a1-3)[Man(a1-6)]Man(a1-6)[Man(a1-3)]Man(b1-4)GlcNAc(b1-4)GlcNAc
# Outline: as §1
# [11] = target: Man(a1-3)[Man(a1-6)]Man(b1-4)GlcNAc(b1-4)GlcNAc
# Outline: as §1
# [12] = target: Man(a1-3)[Man(a1-6)]Man(b1-4)GlcNAc(b1-4)[Fuc(a1-6)]GlcNAc
# Outline: as §1
# [13] = target: Man(a1-6)Man
# Outline: as §1
# [14] = target: Man(b1-4)GlcNAc
# Outline: as §1
# [15] = target: MurNAc(b1-4)GlcNAc
# Outline: as §1
# [16] = target: Neu5Ac(a2-3)Gal
# Outline: as §1
# [17] = target: Neu5Ac(a2-3)Gal(b1-3)GalNAc
# Outline: as §1
# [18] = target: Neu5Ac(a2-3)Gal(b1-3)GalNAc(b1-3)Gal(a1-4)Gal(b1-4)Glc
# Outline: as §1
# [19] = target: Neu5Ac(a2-3)Gal(b1-3)GalNAc(b1-4)[Neu5Ac(a2-3)]Gal(b1-4)Glc
# Outline: as §1
# [20] = target: Neu5Ac(a2-3)Gal(b1-3)GalNAc(b1-4)[Neu5Ac(a2-8)Neu5Ac(a2-3)]Gal(b1-4)Glc
# Outline: as §1
# [21] = target: Neu5Ac(a2-3)Gal(b1-3)GalNAc6S
# Outline: as §1
# [22] = target: Neu5Ac(a2-3)Gal(b1-3)GlcNAc
# Outline: as §1
# [23] = target: Neu5Ac(a2-3)Gal(b1-3)GlcNAc(b1-2)Man
# Outline: as §1
# [24] = target: Neu5Ac(a2-3)Gal(b1-3)GlcNAc(b1-2)Man(a1-3)[GlcNAc(b1-4)][Neu5Ac(a2-3)Gal(b1-3)GlcNAc(b1-2)Man(a1-6)]Man(b1-4)GlcNAc(b1-4)GlcNAc
# Outline: as §1
# [25] = target: Neu5Ac(a2-3)Gal(b1-3)GlcNAc(b1-2)Man(a1-3)[Neu5Ac(a2-3)Gal(b1-3)GlcNAc(b1-2)Man(a1-6)]Man(b1-4)GlcNAc(b1-4)GlcNAc
# Outline: as §1
# [26] = target: Neu5Ac(a2-3)Gal(b1-3)GlcNAc(b1-3)Gal(b1-3)GlcNAc
# Outline: as §1
# [27] = target: Neu5Ac(a2-3)Gal(b1-3)GlcNAc(b1-3)Gal(b1-4)GlcNAc
# Outline: as §1
# [28] = target: Neu5Ac(a2-3)Gal(b1-3)GlcNAc(b1-3)GalNAc
# Outline: as §1
# [29] = target: Neu5Ac(a2-3)Gal(b1-3)GlcNAc(b1-4)Gal(b1-4)Glc
# Outline: as §1
# [30] = target: Neu5Ac(a2-3)Gal(b1-3)GlcNAc(b1-6)GalNAc
# Outline: as §1
# [31] = target: Neu5Ac(a2-3)Gal(b1-3)GlcNAc6S
# Outline: as §1
# [32] = target: Neu5Ac(a2-3)Gal(b1-3)[Fuc(a1-4)]GlcNAc
# Outline: as §1
# [33] = target: Neu5Ac(a2-3)Gal(b1-3)[Fuc(a1-4)]GlcNAc(b1-3)Gal(b1-3)[Fuc(a1-4)]GlcNAc
# Outline: as §1
# [34] = target: Neu5Ac(a2-3)Gal(b1-3)[Fuc(a1-4)]GlcNAc(b1-3)Gal(b1-4)[Fuc(a1-3)]GlcNAc
# Outline: as §1
# [35] = target: Neu5Ac(a2-3)Gal(b1-3)[GlcNAc(b1-6)]GalNAc
# Outline: as §1
# [36] = target: Neu5Ac(a2-3)Gal(b1-3)[Neu5Ac(a2-6)]GalNAc
# Outline: as §1
# [37] = target: Neu5Ac(a2-3)Gal(b1-3)[Neu5Ac(a2-6)]GlcNAc(b1-3)[Fuc(a1-3)[Gal(b1-4)]GlcNAc(b1-6)]Gal(b1-4)Glc
# Outline: as §1
# [38] = target: Neu5Ac(a2-3)Gal(b1-3)]Neu5Ac(a2-3)Gal(b1-4)]GlcNAc
# Outline: as §1
binder,measurement,setting,value
"CFEM-CGl (Candida glabrata), Q6FRS0 (protein) VLATPPACLLACVAQVSKQSSQCHTLNQVGCFCENENTAIKNCLDSICPNGNSDAAYTAFKNSCGDVGKAVASV",glycan array binding signal (z-score),[1],-0.443
same,glycan array binding signal (z-score),[2],-0.214
same,glycan array binding signal (z-score),[3],-0.31
same,glycan array binding signal (z-score),[4],-0.365
same,glycan array binding signal (z-score),[5],-0.474
same,glycan array binding signal (z-score),[6],-0.137
same,glycan array binding signal (z-score),[7],-0.258
same,glycan array binding signal (z-score),[8],-0.174
same,glycan array binding signal (z-score),[9],-0.098
same,glycan array binding signal (z-score),[10],-0.003
same,glycan array binding signal (z-score),[11],-0.234
same,glycan array binding signal (z-score),[12],-0.316
same,glycan array binding signal (z-score),[13],-0.226
same,glycan array binding signal (z-score),[14],-0.397
same,glycan array binding signal (z-score),[15],-0.125
same,glycan array binding signal (z-score),[16],-0.268
same,glycan array binding signal (z-score),[17],-0.016
same,glycan array binding signal (z-score),[18],-0.144
same,glycan array binding signal (z-score),[19],-0.129
same,glycan array binding signal (z-score),[20],-0.372
same,glycan array binding signal (z-score),[21],0.752
same,glycan array binding signal (z-score),[22],-0.015
same,glycan array binding signal (z-score),[23],-0.203
same,glycan array binding signal (z-score),[24],-0.289
same,glycan array binding signal (z-score),[25],-0.352
same,glycan array binding signal (z-score),[26],-0.33
same,glycan array binding signal (z-score),[27],-0.343
same,glycan array binding signal (z-score),[28],-0.212
same,glycan array binding signal (z-score),[29],-0.02
same,glycan array binding signal (z-score),[30],-0.15
same,glycan array binding signal (z-score),[31],-0.154
same,glycan array binding signal (z-score),[32],-0.12
same,glycan array binding signal (z-score),[33],0.386
same,glycan array binding signal (z-score),[34],-0.285
same,glycan array binding signal (z-score),[35],0.035
same,glycan array binding signal (z-score),[36],0.171
same,glycan array binding signal (z-score),[37],-0.266
same,glycan array binding signal (z-score),[38],-0.556

# From the supplement of paper PMC8728848
